The target in assay [1] is GST-BLRF2 aa1–130 (Epstein-Barr virus) (UniProt P03197). Briefly: pull-down; GST-BLRF2 construct and GFP tagged protein co-expressed in 293T cells; 1% NP-40 lysis buffer (50 mM Tris pH 7.5, 150 mM NaCl); Glutathione Sepharose 4B, 2 hours at 4°C; western blot with anti-GFP and anti-GST. For orientation: In western blotting, separated proteins are transferred to a membrane and probed.

Amino acid sequences for entries named in this document (tags omitted). A change or cut given only in a name is not applied to a line headed by its entry. Residues count along the entry.
UniProt P03197: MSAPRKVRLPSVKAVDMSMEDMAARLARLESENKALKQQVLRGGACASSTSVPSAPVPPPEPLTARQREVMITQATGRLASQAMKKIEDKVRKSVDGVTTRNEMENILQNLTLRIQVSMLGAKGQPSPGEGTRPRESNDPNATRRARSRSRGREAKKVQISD
GST-BLRF2 aa1–130: residues 1-130 of P03197
GST-BLRF2 aa42–162: residues 42-162 of P03197
UniProt P78362: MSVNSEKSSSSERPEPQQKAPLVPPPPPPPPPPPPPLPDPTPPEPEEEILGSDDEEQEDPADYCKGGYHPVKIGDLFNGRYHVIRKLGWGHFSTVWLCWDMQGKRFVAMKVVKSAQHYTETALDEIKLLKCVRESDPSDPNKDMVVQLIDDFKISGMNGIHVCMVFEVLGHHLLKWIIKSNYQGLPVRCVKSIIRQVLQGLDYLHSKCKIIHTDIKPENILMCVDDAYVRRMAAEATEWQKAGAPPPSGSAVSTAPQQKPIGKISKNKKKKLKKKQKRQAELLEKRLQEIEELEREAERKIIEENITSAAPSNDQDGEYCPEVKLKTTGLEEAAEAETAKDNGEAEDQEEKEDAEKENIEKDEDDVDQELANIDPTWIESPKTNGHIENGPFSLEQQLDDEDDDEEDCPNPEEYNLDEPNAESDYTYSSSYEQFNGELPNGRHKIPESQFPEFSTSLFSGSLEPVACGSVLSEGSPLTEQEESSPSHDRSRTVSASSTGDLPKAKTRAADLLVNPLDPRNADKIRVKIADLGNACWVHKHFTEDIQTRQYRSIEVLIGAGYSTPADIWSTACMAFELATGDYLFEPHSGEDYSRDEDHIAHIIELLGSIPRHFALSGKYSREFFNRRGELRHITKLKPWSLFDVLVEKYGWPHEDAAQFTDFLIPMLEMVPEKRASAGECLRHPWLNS

Assay [2] deals with GST-BLRF2 aa42–162 (Epstein-Barr virus) (UniProt P03197). Described as above.
The target in assay [3] is GST-BLRF2 (1–162) (Epstein-Barr virus) (UniProt P03197). The description is as above.
Assay [4] deals with FLAG-HA-BLRF2 (Epstein-Barr virus) (UniProt P03197). Briefly: co-IP; FLAG-HA-BLRF2 P3HR1-ZHT cells induced with 4-hydroxytamoxifen for 48 hours; total lysate, cytoplasmic and nuclear fractions (hypotonic lysis) immunoprecipitated with flag beads (M2); blotted for BLRF2 (HA antibody) and SRPK2.
The target of assay [5] is BLRF2 yeast two-hybrid fusions (gal4-AD-BLRF2 and gal4-DB-BLRF2) (Epstein-Barr virus) (UniProt P03197). Briefly: two-hybrid; gal4-DB-BLRF2 (bait configuration) screened against the human ORFeome v5.1; also published as part of a larger dataset (ref. 22).

Results are given in words; binding and its absence hold for the method and conditions named. For some of these results: In cells and extracts the contact can be indirect. Some results given as binding are weak or reduced against the parent protein; the word gives no strength. For some of these results: Where a sequence is shown, tags or fusion partners need not be part of it.

With GFP-BLRF2 (from UniProt P03197 1-162), the binding result in assay [1] and in assay [2] was “binds” each time.
In the case of “GFP-SRPK2 (from UniProt P78362 1-688) (enzyme)”, the binding entry in assay [3] is “binds”; in assay [1] it was “no binding”; in assay [2] it was “binds”.
With “SRPK2 (endogenous, P3HR1-ZHT cells) (from UniProt P78362 1-688) (enzyme)”, the binding entry in assay [4] is on record as “binds”.

B1: GFP tagged BNRF1 (protein, UniProt P03179 1-1318)
chain: MEERGRETQMPVARYGGPFIMVRLFGQDGEANIQEERLYELLSDPRSALGLDPGPLIAENLLLVALRGTNNDPRPQRQERARELALVGILLGNGEQGEHLGTESALEASGNNYVYAYGPDWMARPSTWSAEIQQFLRLLGATYVLRVEMGRQFGFEVHRSRPSFRQFQAINHLVLFDNALRKYDSGQVAAGFQRALLVAGPETADTRPDLRKLNEWVFGGRAAGGRQLADELKIVSALRDTYSGHLVLQPTETLDTWKVLSRDTRTAHSLEHGFIHAAGTIQANCPQLFMRRQHPGLFPFVNAIASSLGWYYQTATGPGADARAAARRQQAFQTRAAAECHAKSGVPVVAGFYRTINATLKGGEGLQPTMFNGELGAIKHQALDTVRYDYGHYLIMLGPFQPWSGLTAPPCPYAESSWAQAAVQTALELFSALYPAPCISGYARPPGPSAVIEHLGSLVPKGGLLLFLSHLPDDVKDGLGEMGPARATGPGMQQFVSSYFLNPACSNVFITVRQRGEKINGRTVLQALGRACDMAGCQHYVLGSTVPLGGLNFVNDLASPVSTAEMMDDFSPFFTVEFPPIQEEGASSPVPLDVDESMDISPSYELPWLSLESCLTSILSHPTVGSKEHLVRHTDRVSGGRVAQQPGVGPLDLPLADYAFVAHSQVWTRPGGAPPLPYRTWDRMTEKLLVSAKPGGENVKVSGTVITLGEQGYKVSLDLREGTRLAMAEALLNAACAPILDPEDVLLTLHLHLDPRRADNSAVMEAMTAASDYARGLGVKLTFGSASCPETGSSASNFMTVVASVSAPGEFSGPLITPVLQKTGSLLIAVRCGDGKIQGGSLFEQLFSDVATTPRAPEALSLKNLFRAVQQLVKSGIVLSGHDISDGGLVTCLVEMALAGQRGVTITMPVASDYLPEMFAEHPGLVFEVEERSVGEVLQTLRSMNMYPAVLGRVGEQGPDQMFEVQHGPETVLRQSLRLLLGTWSSFASEQYECLRPDRINRSMHVSDYGYNEALAVSPLTGKNLSPRRLVTEPDPRCQVAVLCAPGTRGHESLLAAFTNAGCLCRRVFFREVRDNTFLDKYVGLAIGGVHGARDSALAGRATVALINRFPALRDAILKFLNRPDTFSVALGELGVQVLAGLGAVGSTDNPPAPGVEVNVQRSPLILAPNASGMFESRWLNISIPATTSSVMLRGLRGCVLPCWVQGSCLGLQFTNLGMPYVLQNAHQIACHFHSNGTDAWRFAMNYPRNPTEQGNIAGLCSRDGRHLALLCDPSLCTDFWQWEHIPPAFGHPTGCSPWTLMFQAAHLWSLRHGRPSE
B1: the binding result was “binds” in assay [3], “no binding” in assay [1] and “binds” in assay [2].

B2: GFP tagged SRPRB (protein, UniProt Q9Y5M8 1-271)
chain: MASADSRRVADGGGAGGTFQPYLDTLRQELQQTDPTLLSVVVAVLAVLLTLVFWKLIRSRRSSQRAVLLVGLCDSGKTLLFVRLLTGLYRDTQTSITDSCAVYRVNNNRGNSLTLIDLPGHESLRLQFLERFKSSARAIVFVVDSAAFQREVKDVAEFLYQVLIDSMGLKNTPSFLIACNKQDIAMAKSAKLIQQQLEKELNTLRVTRSAAPSTLDSSSTAPAQLGKKGKEFEFSQLPLKVEFLECSAKGGRGDVGSADIQDLEKWLAKIA
Regarding B2, the binding result was “binds” in assay [3], “no binding” in assay [1] and “binds” in assay [2].

B3: ZBED1 (human ORFeome v5.1 hybrid protein, partner of gal4-DB-BLRF2) (protein, UniProt O96006 1-694)
chain: MENKSLESSQTDLKLVAHPRAKSKVWKYFGFDTNAEGCILQWKKIYCRICMAQIAYSGNTSNLSYHLEKNHPEEFCEFVKSNTEQMREAFATAFSKLKPESSQQPGQDALAVKAGHGYDSKKQQELTAAVLGLICEGLYPASIVDEPTFKVLLKTADPRYELPSRKYISTKAIPEKYGAVREVILKELAEATWCGISTDMWRSENQNRAYVTLAAHFLGLGAPNCLSMGSRCLKTFEVPEENTAETITRVLYEVFIEWGISAKVFGATTNYGKDIVKACSLLDVAVHMPCLGHTFNAGIQQAFQLPKLGALLSRCRKLVEYFQQSAVAMYMLYEKQKQQNVAHCMLVSNRVSWWGSTLAMLQRLKEQQFVIAGVLVEDSNNHHLMLEASEWATIEGLVELLQPFKQVAEMLSASRYPTISMVKPLLHMLLNTTLNIKETDSKELSMAKEVIAKELSKTYQETPEIDMFLNVATFLDPRYKRLPFLSAFERQQVENRVVEEAKGLLDKVKDGGYRPAEDKIFPVPEEPPVKKLMRTSTPPPASVINNMLAEIFCQTGGVEDQEEWHAQVVEELSNFKSQKVLGLNEDPLKWWSDRLALFPLLPKVLQKYWCVTATRVAPERLFGSAANVVSAKRNRLAPAHVDEQVFLYENARSGAEAEPEDQDEGEWGLDQEQVFSLGDGVSGGFFGIRDSSFL
For B3, the binding result in assay [5] is reported as “binds”.

B4: GFP tagged ZBED1 (protein, UniProt O96006 1-694)
chain: MENKSLESSQTDLKLVAHPRAKSKVWKYFGFDTNAEGCILQWKKIYCRICMAQIAYSGNTSNLSYHLEKNHPEEFCEFVKSNTEQMREAFATAFSKLKPESSQQPGQDALAVKAGHGYDSKKQQELTAAVLGLICEGLYPASIVDEPTFKVLLKTADPRYELPSRKYISTKAIPEKYGAVREVILKELAEATWCGISTDMWRSENQNRAYVTLAAHFLGLGAPNCLSMGSRCLKTFEVPEENTAETITRVLYEVFIEWGISAKVFGATTNYGKDIVKACSLLDVAVHMPCLGHTFNAGIQQAFQLPKLGALLSRCRKLVEYFQQSAVAMYMLYEKQKQQNVAHCMLVSNRVSWWGSTLAMLQRLKEQQFVIAGVLVEDSNNHHLMLEASEWATIEGLVELLQPFKQVAEMLSASRYPTISMVKPLLHMLLNTTLNIKETDSKELSMAKEVIAKELSKTYQETPEIDMFLNVATFLDPRYKRLPFLSAFERQQVENRVVEEAKGLLDKVKDGGYRPAEDKIFPVPEEPPVKKLMRTSTPPPASVINNMLAEIFCQTGGVEDQEEWHAQVVEELSNFKSQKVLGLNEDPLKWWSDRLALFPLLPKVLQKYWCVTATRVAPERLFGSAANVVSAKRNRLAPAHVDEQVFLYENARSGAEAEPEDQDEGEWGLDQEQVFSLGDGVSGGFFGIRDSSFL
For B4, the binding result is “binds” in assay [3], “no binding” in assay [1] and “binds” in assay [2].

For the origin of these results see publication PMC3541133.
